# According to the supplement of paper PMC11417369:
# ± gives the standard deviation of the averaged measurements. The list shows a part of the results.
# System: PfAP2-LT AP2 domain (GST-tagged)
# Assay: gcPBM binding intensity (ln(normalized median fluorescence intensity)); higher = stronger DNA binding
# Method in brief: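 GST-tagged P. falciparum DNA-binding domains, expressed in E. coli (about 25 μg on average), were applied for 1 h to an Agilent 4 × 180k array of primer-extended double-stranded 36-bp intergenic genomic probes plus negative controls. The binding buffer was 1× PBS with 1% milk, 0.2 mg/ml BSA, 0.5% salmon testes DNA and 0.03% Triton X-100. Bound protein was detected with Alexa488 anti-GST antibody and scanned at 488 nm. Binding intensity is the highest Masliner-normalised natural-log median intensity across replicate spots of either probe orientation.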
row,Sequence,gcPBM binding intensity (ln)
1,AATTATATATTATAATGTACATATATATAACTATAC [XGTACX_site1865],8.74 ± 0.43
2,ATATATTTAAACTACACACGCATATCTTAGAAATAA [CACACA_site1272],8.9 ± 0.29
3,TATAAAAAAAGAGGAGGGATGGTATACTTGTGGTTT [TGCATGCA_negctrl_site49],8.95 ± 0.18
4,TTATTTTTGTTCATAGTGCATAGAATTTATACATAT,8.8 ± 0.53
5,TTTTTTTTATGGTACACACACGCGTATGGTTGCACG [CACACA_site1877],9.38 ± 0.45
6,ATAGACAGCGCACAAACACACAAACACAGACCCCCA [CACACA_site4409],9.89 ± 0.4
7,ATTTATTTATTGGCACGTACAAATTTGTGTTTTCCA [XGTACX_site6978],8.96 ± 0.45
8,TTTTTTTCTTTTCAAACACACAATTGGTATATATCA [CACACA_site7542],8.78 ± 0.42
9,TTGTAAATTTCTGGTTATATATTTTATGTATATGTT [CACACA_negctrl_site1443],8.86 ± 0.44
10,ATATATATATATATATGTACTGAATAAAGAACAAAA [XGTACX_site5400],9.14 ± 0.2
11,CGTATATGACAAAAGCGTACGCATCAGCAGAAAAAT [XGTACX_site6248],9.16 ± 0.37
12,TAAAAAAAAACATATACACACAAAAACGTACACATA [CACACA_site1354],9.31 ± 0.3
13,TTTTTTTCTCACAATCGTACATAAATACATATATAT [XGTACX_site3150],8.8 ± 0.54
14,AGAATATGTTAAAAAAGTACATACTCTTTATATACG [XGTACX_site79],8.68 ± 0.46
15,AGGGGAAATAAAATATAAATTATCATATATATATAT [XGTACX_negctrl_site366],9.11 ± 0.25
16,TATATTTTTTAAACCACACACAATATAGAGTAGAAT [CACACA_site613],8.99 ± 0.4
17,TAATGTACATAAACCGCACACATATAAAAAAATAAA [CACACA_site2851],9.3 ± 0.55
18,AGAAATAAGAAATATACACACATATAAATATAAATA [CACACA_site7342],9.18 ± 0.43
19,AAAAAAAATGATAATATACACACTTATGGGAGAGCG [CACACA_site2516],8.88 ± 0.46

row,Sequence,gcPBM binding intensity (ln)
1,AGAATATTTAATTCAACACACATACATATTTATTAA [CACACA_site5318],8.73 ± 0.4
2,TATTGTATATACTATACACACACATACATACATACA [CACACA_site8172],9.55 ± 0.32
3,ATATATTTATATAAATGTACATACAGCACATTTATA [XGTACX_site4725],8.63 ± 0.33
4,CAAATATACATATGTAGTACATGTTGTAGATAATTT [XGTACX_site2790],9.07 ± 0.38
5,TACTTTATATAAAGATCAAAAAATAAATAATTATAA [TGCATGCA_negctrl_site446],8.29 ± 0.45
6,GAAGCCCTATGAAAAGTGCGGTTCATGAACAAAGAA [GTGCAC_site9828],9.12 ± 0.57
7,GGATAATATATTAGAACACACATATAGATGTAAAAA [CACACA_site6229],8.94 ± 0.49
8,TTATATTATACATACACACCCATATAATATGTTTTT [CACACA_site4636],8.95 ± 0.47
9,TTGTTTTTGTTCTTGGGTACTTAAATTATAAATGAT [XGTACX_site113],8.61 ± 0.42
10,TCTTATGAATATCCCCGTACACATATATTTCTTATA [XGTACX_site6877],8.83 ± 0.47
11,AGCTACACACCACAATGTACATAAATATATATGTGA [XGTACX_site1483],9.14 ± 0.47
12,TATTTGTAAATCGATACACACATATAGATTAATATA [CACACA_site6237],8.88 ± 0.35
13,ATAAGGAAGGGATGCACACAAAAGGGTACATAAGAA [CACACA_site4006],9.34 ± 0.61
14,TTTGAATCCTTATATACACACATTATAAAATATTAT [CACACA_site6406],8.73 ± 0.42
15,TAAAATGCAATCTGAACACACATATTTTTTTAATAT [CACACA_site6922],8.71 ± 0.42
16,TACATCATACGAACAGTGCATATTATTATTGTTCTG,8.89 ± 0.44
17,ATGGATTATACGTGCACACATATATACAAATAAATA [CACACA_site640],9.26 ± 0.31
18,ACCATTTGTAGGTAAACACACATTATTATTAATATC [CACACA_site2635],8.93 ± 0.4
19,GTATTTATAAATTATAGTACTTTGCGTATCATATAT [XGTACX_site7358],8.83 ± 0.48

row,Sequence,gcPBM binding intensity (ln)
1,ATTTTATATCTGGATAGTACTTTAATATTTCAAATG [XGTACX_site7304],8.63 ± 0.38
2,GGATATTCATTAACCACACACACAAAAAAAATAAAA [CACACA_site3800],9.52 ± 0.53
3,TACTTACCAAAATACACACACACACTAGATATATAA [CACACA_site5096],10 ± 0.23
4,TATATATCATATGATACATGCAACAAAATGCATAAT [TGCATGCA_site205],8.89 ± 0.25
5,ATGTATATTACTCATTGTACTTATATTTTCTTATTA [XGTACX_site8897],8.9 ± 0.45
6,AGATATTATAAAATATGTACATATATATATATATAT [XGTACX_site2088],9.67 ± 0.38
7,TAATTAGATTATTTTTGTACATATTATTATAGGTTA [XGTACX_site2077],8.61 ± 0.42
8,AAATATAACATCATCACACACATATACTTTATATGC [CACACA_site1126],9.37 ± 0.27
9,AGCTTCATATTATGGAGTACTATTAAAAATAAATAA [XGTACX_site2649],8.36 ± 0.5
10,AAAGTAATAATGATTTGTACATATATATATATATAT [XGTACX_site8821],9.6 ± 0.4
11,TTATCTTTTTTCGTTTGTACGTAACCATATTACTAT [XGTACX_site8853],9.01 ± 0.45
12,ATTTTTTATGTTAATGCATGCTCATGTGTATTTCAT [TGCATGCA_site751],9.35 ± 0.42
13,GGAATATATATACATACACACATATATATATATATA [CACACA_site1666],9.88 ± 0.29
14,ATGCAAATGTGCATCACACACACTAATGGGTATGTA [CACACA_site2893],9.41 ± 0.31
15,AAAAATAATTATTCGTGTACAAAAAAAAAAATATAA [XGTACX_site439],8.79 ± 0.51
16,AAAAAAAAAAAAAAAAGTACAAGCATTGCGTTTTAA [XGTACX_site6075],8.56 ± 0.42
17,GTATATATATACCATTGTACTTTCGTAAAAATATTT [XGTACX_site4846],8.8 ± 0.4
18,AAAAAAAAAAAAAAAACACACATACACGCACGCACA [CACACA_site7569],9.35 ± 0.23
19,AGAAAAAAAAAAAAAAAAATATATATATATATATAT [TGCATGCA_negctrl_site411],9.8 ± 0.14
